Measurements from the supplement of paper PMC7266297.
Counter-ions that a name gives are not always drawn. This is one part of the list. Single values are uncertain, as repeats are few or missing.

Test system: KB-3-1
Assay: growth inhibition relative to DMSO control (SRB); cervical cancer cells: KB-3-1 is the parent and KB-V1 overexpresses MDR1; SRB is the sulforhodamine B stain; higher = more growth inhibition
Details: 1 µM; 72 h
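Note: Read-out is SRB optical density at 490 nm, with the control being wells given 0.5% DMSO vehicle, and compound added one day after cells were plated.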

Compound	growth inhibition [%]
CN(C)CC/C=C1/c2ccccc2COc2ccc(CC(=O)O)cc21 [Olopatadine HCl]	27.8
CCOC(=O)C1=C(N)Oc2ccc(Br)cc2C1C(C#N)C(=O)OCC (stereo not given)	15.8
CCc1c(O)cc(O)c(C(=O)c2ccc(OCCN3CCOCC3)c(OC)c2)c1CC(=O)N(CCOC)CCOC	< 0
Cn1cc(-c2ccc3nnc(Sc4ccc5ncccc5c4)n3n2)cn1	12
c1ccc(-c2nn3c(c2-c2ccnc4cc(OCCN5CCOCC5)ccc24)CCC3)nc1	< 0
Clc1ccc(Nc2nnc(Cc3ccncc3)c3ccccc23)cc1 [Vatalanib (PTK787) 2HCl]	70.5
Cc1ccc(S(=O)(=O)OCC(=O)Nc2ccc(C(=O)O)c(O)c2)cc1	34.1
Cc1cc(F)c(Nc2ncnc3cc(OCc4ccccc4)ccc23)cc1O	13.5
Cc1cc(-c2ncc(CC(=O)Nc3ccc(-c4cnccn4)cn3)cc2C)ccn1	< 0
CCOC(=O)Nc1cc(-c2ccc(C)c(NS(C)(=O)=O)c2)nn2c(C)nnc12 [Bromosporine]	42
CC(=O)c1c(C)c2cnc(Nc3ccc(N4CCNCC4)cn3)nc2n(C2CCCC2)c1=O	34.9
COc1cccc2c1C(=O)c1c(O)c3c(c(O)c1C2=O)C[C@@](O)(C(=O)CO)C[C@@H]3O[C@H]1C[C@H](N)[C@H](O)[C@H](C)O1 [Doxorubicin (Adriamycin)]	76.6
CC(=O)O[C@]1(C(C)=O)CC[C@H]2[C@@H]3C=C(C)C4=CC(=O)CC[C@]4(C)[C@H]3CC[C@@]21C [Megestrol Acetate]	14.5
CO[C@@H](C(=O)N1Cc2[nH]nc(NC(=O)c3ccc(N4CCN(C)CC4)cc3)c2C1)c1ccccc1	84.1
NCCCCCNCC12CC3CC(CC(C3)C1)C2 [IEM 1754 dihydrobroMide]	13
CNC(=O)c1ccc(N2C(=S)N(c3cnc(C#N)c(C(F)(F)F)c3)C(=O)C23CCC3)cc1F	10.3
CCCC(C)NC(=O)c1ccc(Cl)c(Cl)c1 (stereo not given)	29.4
CCOC(=O)[C@H](CCc1ccccc1)N[C@@H](C)C(=O)N1C(=O)N(C)C[C@H]1C(=O)O [Imidapril HCl]	< 0
CN1CCN(c2ccc3nc(-c4c(N)c5c(F)cccc5[nH]c4=O)[nH]c3c2)CC1 [Dovitinib (TKI-258) Dilactic Acid]	11.1
Cn1cc(C2=C(c3cn(CCCSC(=N)N)c4ccccc34)C(=O)NC2=O)c2ccccc21 [Ro 31-8220 Mesylate]	76.9

Compound	growth inhibition [%]
CCOC(=O)[C@H](CCc1ccccc1)N[C@H]1CCCN2CCC[C@@H](C(=O)O)N2C1=O [Cilazapril Monohydrate]	19.1
CC[C@@H]1C(=O)N(C)c2cnc(Nc3ccc(C(=O)N[C@H]4CC[C@H](N5CCN(CC6CC6)CC5)CC4)cc3OC)nc2N1C(C)C [Volasertib (BI 6727)]	86.4
O=C(Cc1ccc(-c2ccc(OCCN3CCOCC3)cc2)cn1)NCc1ccccc1	70.4
CN(C)Cc1cccc(N=C(c2ccccc2)c2c(O)[nH]c3cc(C(=O)N(C)C)ccc23)c1	19.7
CN(C)CCOc1ccc(-c2nc(-c3ccncc3)c(-c3ccc4c(c3)CC/C4=N\O)[nH]2)cc1	< 0
CS(=O)(=O)c1ccc(C(=O)Nc2ccc(Cl)c(-c3ccccn3)c2)c(Cl)c1 [Vismodegib (GDC-0449)]	16.3
Cc1cc(Nc2cc(N3CCN(C)CC3)nc(/C=C/c3ccccc3)n2)n[nH]1	92.6
Nc1ccc(C(=O)Nc2cccc(-c3nc(N4CCOCC4)c4oc5ncccc5c4n3)c2)cn1	70.7
CCOC(=O)[C@H](CCc1ccccc1)N[C@H]1CCc2ccccc2N(CC(=O)O)C1=O [Benazepril HCl]	10.2
CCN1CCN(c2ccc(Nc3cc(N(C)C(=O)Nc4c(Cl)c(OC)cc(OC)c4Cl)ncn3)cc2)CC1	< 0
C=CC(=O)Nc1ccc2ncnc(Nc3cccc(Br)c3)c2c1	5.13
CC(C)(C)c1cnc(CSc2cnc(NC(=O)C3CCNCC3)s2)o1	100
Cc1[nH]c(=O)c(C#N)cc1-c1ccncc1 [Milrinone]	26.9
O=C(O)CCCN1CCC(O[C@@H](c2ccc(Cl)cc2)c2ccccn2)CC1 [Bepotastine Besilate]	< 0
O=C1NC(=O)C(=Cc2ccc(-c3ccc(F)cc3)o2)S1 (stereo in doubt)	< 0
Cc1cn([C@H]2C=C[C@@H](CO)O2)c(=O)[nH]c1=O [Stavudine (d4T)]	12.1
OC(CCN1CCCCC1)(c1ccccc1)C1CC2C=CC1C2 (stereo not given) [Biperiden HCl]	8.77
Nc1c(Br)cc(Br)cc1CN[C@H]1CC[C@H](O)CC1 [Ambroxol HCl]	< 0
COCCCC/C(=N\OCCN)c1ccc(C(F)(F)F)cc1 [Fluvoxamine maleate]	13.2
Cc1csc(-c2nnc(Nc3ccc(Oc4ncccc4-c4ccnc(N)n4)cc3)c3ccccc23)c1	< 0
